Laboratory results as given in the supplement of paper PMC9151546.
Most values come without repeats; read them as rough.

Tests used:
CHO-K1 [1] = experiment: hypodiploid nuclei frequency (% of nucleated events); higher = more hypodiploid events (aneugenic)
Method: (§1)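 Flow-cytometric in vitro micronucleus assay (Litron MicroFlow) in CHO-K1 cells in 96-well plates, 19 concentrations (4.5-200 µM, n=1 per concentration). Without S9, cells were exposed for 24 h and sampled at 48 h. With Aroclor 1254-induced rat liver S9, cells were exposed for 3-4 h and sampled at 27-28 h. Read-outs are %MN and %hypodiploid nuclei relative to nucleated events, and relative survival as the nuclei-to-bead ratio versus the 1% DMSO vehicle control (x100).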

CHO-K1 [2] = experiment: micronucleus frequency (% of nucleated events); higher = more micronuclei (genotoxic)
CHO-K1 [3] = experiment: relative survival (nuclei to bead ratio vs DMSO control) (% of vehicle control); higher = more surviving cells
Method: as §1
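For hypodiploid nuclei frequency (% of nucleated events) in this document: hypodiploid nuclei gated on a flow cytometer with 488 nm excitation after SYTOX Green staining, cultures at 37 °C, positive controls vinblastine without S9 and cyclophosphamide with S9.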
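For micronucleus frequency (% of nucleated events) in this document: cells lysed with nuclei stained by SYTOX Green, then micronucleus-gated events counted against nucleated events by flow cytometry with 488 nm excitation.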
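For relative survival (nuclei to bead ratio vs DMSO control) in this document: Lysed-cell nuclei stained with SYTOX Green and counted against counting beads by flow cytometry at 488 nm excitation, with vinblastine (no S9) and cyclophosphamide (plus S9) as positive controls.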

NC(=O)N1c2ccccc2C=Cc2ccccc21 [Carbamazepine]
Details	hypodiploid nuclei frequency, CHO-K1 [1] [%]	micronucleus frequency, CHO-K1 [2] [%]	relative survival, CHO-K1 [3]
concentration: 4.5 (µM), S9 metabolic activation: with S9, exposure time: 3-4 hours	0.32	2.36	132
concentration: 4.5 (µM), S9 metabolic activation: without S9, exposure time: 24 hours	0.52	1.54	74.3
concentration: 5.63 (µM), S9 metabolic activation: with S9, exposure time: 3-4 hours	0.22	1.8	116
concentration: 5.63 (µM), S9 metabolic activation: without S9, exposure time: 24 hours	0.7	1.4	77.2
concentration: 7.04 (µM), S9 metabolic activation: with S9, exposure time: 3-4 hours	0.24	2.16	116
concentration: 7.04 (µM), S9 metabolic activation: without S9, exposure time: 24 hours	0.42	1.08	95.8
concentration: 8.8 (µM), S9 metabolic activation: with S9, exposure time: 3-4 hours	0.16	1.6	122
concentration: 8.8 (µM), S9 metabolic activation: without S9, exposure time: 24 hours	0.54	2.06	98.2
concentration: 11 (µM), S9 metabolic activation: with S9, exposure time: 3-4 hours	0.24	1.58	122
concentration: 11 (µM), S9 metabolic activation: without S9, exposure time: 24 hours	0.74	1.4	84.4
concentration: 13.7 (µM), S9 metabolic activation: with S9, exposure time: 3-4 hours	0.28	1.74	113
concentration: 13.7 (µM), S9 metabolic activation: without S9, exposure time: 24 hours	0.7	1.5	102
concentration: 17.2 (µM), S9 metabolic activation: with S9, exposure time: 3-4 hours	0.26	1.74	109
concentration: 17.2 (µM), S9 metabolic activation: without S9, exposure time: 24 hours	0.6	1.42	73.7
concentration: 21.5 (µM), S9 metabolic activation: with S9, exposure time: 3-4 hours	0.3	1.28	113
concentration: 21.5 (µM), S9 metabolic activation: without S9, exposure time: 24 hours	0.56	1.52	88.9
concentration: 26.8 (µM), S9 metabolic activation: with S9, exposure time: 3-4 hours	0.28	1.98	165
concentration: 26.8 (µM), S9 metabolic activation: without S9, exposure time: 24 hours	0.48	1.88	87
concentration: 33.6 (µM), S9 metabolic activation: with S9, exposure time: 3-4 hours	0.36	2.72	134
concentration: 33.6 (µM), S9 metabolic activation: without S9, exposure time: 24 hours	0.68	1.4	117
concentration: 41.9 (µM), S9 metabolic activation: with S9, exposure time: 3-4 hours	0.28	1.62	147
concentration: 41.9 (µM), S9 metabolic activation: without S9, exposure time: 24 hours	0.58	1.04	81.3
concentration: 52.4 (µM), S9 metabolic activation: with S9, exposure time: 3-4 hours	0.32	1.78	133
concentration: 52.4 (µM), S9 metabolic activation: without S9, exposure time: 24 hours	0.5	1.16	89.3
concentration: 65.5 (µM), S9 metabolic activation: with S9, exposure time: 3-4 hours	0.3	2.14	125
concentration: 65.5 (µM), S9 metabolic activation: without S9, exposure time: 24 hours	0.72	1.72	119
concentration: 81.9 (µM), S9 metabolic activation: with S9, exposure time: 3-4 hours	0.4	1.78	111
concentration: 81.9 (µM), S9 metabolic activation: without S9, exposure time: 24 hours	0.96	1.86	105
concentration: 102 (µM), S9 metabolic activation: with S9, exposure time: 3-4 hours	0.34	1.86	126
concentration: 102 (µM), S9 metabolic activation: without S9, exposure time: 24 hours	0.68	1.64	86.6
concentration: 128 (µM), S9 metabolic activation: with S9, exposure time: 3-4 hours	0.24	1.1	120
concentration: 128 (µM), S9 metabolic activation: without S9, exposure time: 24 hours	1.12	2.22	102
concentration: 160 (µM), S9 metabolic activation: with S9, exposure time: 3-4 hours	0.34	1.66	128
concentration: 160 (µM), S9 metabolic activation: without S9, exposure time: 24 hours	1.34	2.14	70.1
concentration: 200 (µM), S9 metabolic activation: with S9, exposure time: 3-4 hours	0.2	1.44	115
concentration: 200 (µM), S9 metabolic activation: without S9, exposure time: 24 hours	1.6	2.38	63.4
